# Data as given in PubChem BioAssay AID624296 (National Center for Advancing Translational Sciences (NCATS), 2012).
# Among all 350,000 compounds or so, about 9,900 (2.8%) were called active. The shares of active, inactive and inconclusive entries below differ from those in the screen. Calls come from the whole dose curve; as a rule, active = well fitted activation curve with a large enough effect; inconclusive = small, poorly fitted or top-dose-only effect; inactive = no such curve, though single readings can be large or run the other way. No potency is given beside an inconclusive call; the fits are too rough.
# Test: A quantitative high throughput screen for small molecules that induce DNA re-replication in MCF 10a normal breast cells. Note: nearly all actives have a fitted effect of over 50% in size.
# Conditions: MCF 10A DNA re-replication, Hoechst nuclear intensity, 48 h; series mostly up to 46.1 µM
# Potency is the fitted concentration of half-maximal effect; tags give direction and shape of the fitted curve.
row,SMILES,Potency
1,CC12CCC(C(=O)N(CSC(=S)N/N=C\c3ccccc3)C1=O)C2(C)C (stereo not given),"inconclusive [activator, single point]"
2,CCOc1ccc(N(CC(=O)NC2CCCC2)C(=O)CCC(=O)Nc2nc(C)cs2)cc1,"inconclusive [activator, single point]"
3,COc1ccc(-c2csc(-n3ncc(C(=O)O)c3C(F)(F)F)n2)cc1,"inconclusive [activator, single point]"
4,O=C(/C=C/c1ccc(NC(=O)c2ccccc2-c2ccccc2C(=O)O)cc1)c1ccccc1,"inconclusive [activator, single point]"
5,COc1ccc(/C=N/NC(=O)c2cc(-c3ccc(C)cc3C)nc3ccccc23)cc1COC(C)=O,"inconclusive [activator, partial curve, poor fit]"
6,CNC(=O)c1cc(S(=O)(=O)Nc2ccc3c(c2)OCCO3)ccc1C,"inconclusive [activator, single point]"
7,Cc1cccc(COCC(CC(C)C)N2CCN(C(=O)c3ccc(C(C)(C)C)cc3)CCC2=O)c1 (stereo not given),"inconclusive [activator, single point]"
8,Cc1ccccc1NC(=O)c1cn(-c2ccccc2)nc1-c1ccccc1,"inconclusive [activator, partial curve, poor fit]"
9,O=C(NCCCNc1ccc(C(F)(F)F)cc1[N+](=O)[O-])c1cc(F)c(F)cc1Cl,"inconclusive [activator, single point]"
10,CCc1ccc(C(=O)CCC(=O)Nc2cccc(S(=O)(=O)N3CCCCC3)c2)cc1,"inconclusive [activator, full curve]"
11,O=[N+]([O-])c1ccc(S(=O)(=O)N/N=C/c2cccs2)cc1,"inconclusive [activator, partial curve]"
12,COc1cc(/C=C/c2nc(N)nc(-c3ccccc3O)n2)cc(OC)c1OC,"inconclusive [activator, single point]"
13,COc1ccc(-c2cn[nH]c2-c2ccc(OCc3ccccc3)cc2O)cc1,active: 13 µM
14,COC(=O)C1=C(C)N(Cc2ccccc2)C(=NCCc2c[nH]c3ccccc23)N[C@H]1c1cccc(F)c1,"inconclusive [activator, single point]"
15,Cc1ccc2oc(C(=O)N(Cc3ccc(N(C)C)cc3)CC3CCCO3)c(C)c2c1 (stereo not given),"inconclusive [activator, single point]"
16,CC(=NNC(=S)SCc1ccccc1)c1ccccn1,"inconclusive [activator, full curve, poor fit]"
17,CN1CCC(N(C)C(=O)c2ccc(Cl)c(S(=O)(=O)N3CCc4ccccc43)c2)CC1,"inconclusive [activator, partial curve]"
18,O=C(/C=C/c1ncc(C(F)(F)F)cc1Cl)OCc1ccccc1,"inconclusive [activator, partial curve, poor fit]"
19,CC(C)(C)C1CCC(=NNc2ccc(S(N)(=O)=O)cc2[N+](=O)[O-])CC1 (stereo not given),"inconclusive [activator, single point]"
20,O=C(O)CCC(=O)Nc1ccc(-n2ccc(C(F)(F)F)n2)cc1,inactive
21,Cn1cnnc1SCC(=O)NCc1cccc(C(F)(F)F)c1,"inconclusive [activator, single point]"
22,O=[N+]([O-])c1nn(-c2ccc3c(c2)OCCO3)n(O)c1=NCCC1=CCCCC1,"inconclusive [activator, partial curve, poor fit]"

row,SMILES,Potency
1,O=C(CCS(=O)(=O)c1ccc(Cl)cc1)Nc1nc(-c2ccncc2)cs1,"inconclusive [activator, single point]"
2,COc1ccc(/C=C/c2ccc3c(Br)ccc(O)c3n2)cc1,active: 23.1 µM
3,COc1ccc(NC(=O)CSCC(=O)N(C)Cc2ccc(Cl)c(Cl)c2)cc1,inactive
4,Cc1cnc(NC(=O)c2cc3c(s2)CCCC3)s1,"inconclusive [activator, partial curve, poor fit]"
5,COc1ccccc1NC(=O)Nc1ccc(S(=O)(=O)Nc2onc(C)c2C)cc1,inactive
6,N=C1C(c2nc(-c3ccc(F)cc3)cs2)=C(O)CN1Cc1ccc(Cl)cc1,"inconclusive [activator, full curve]"
7,Fc1c(F)c(C(F)(F)F)c(F)c(F)c1N/N=C\c1cccs1,"inconclusive [activator, single point]"
8,O=c1cc(N2CCN(c3ccccc3Cl)CC2)[nH]c(=O)n1Cc1ccc(F)cc1,active: 2.06 µM
9,Cn1c(CS(=O)Cc2c(Cl)cccc2Cl)nnc1SCc1ccc(Cl)cc1 (stereo not given),inactive
10,O=C(CSc1nnc(N2CCOCC2)n1-c1cccc(F)c1)N1CCN(c2ccccn2)CC1,"inconclusive [activator, full curve, poor fit]"
11,CN(CC(=O)Nc1cccc(F)c1)C(=O)c1cc(-c2ccco2)nc2ccccc12,"inconclusive [activator, single point]"
12,CC1(C)Cc2ccccc2-c2nnnn21,inactive
13,Brc1ccc(C2CC(c3ccccc3)=Nc3ccccc3N2)cc1 (stereo not given),"inconclusive [activator, partial curve, poor fit]"
14,COc1ccccc1C(CCN(Cc1ccccc1)C(C)=O)c1ccco1 (stereo not given),"inconclusive [activator, single point]"
15,N=c1n(CCCOc2ccccc2Cl)c2ccccc2n1CC(N)=O,inactive
16,Cc1ccc(-n2ncc3c(=O)n(CC(=O)N4CCN(c5ccccc5F)CC4)cnc32)cc1C,"inconclusive [activator, single point]"
17,COc1ccc(NC(=S)N2CCN(c3ccc([N+](=O)[O-])cc3)CC2)cc1OC,"inconclusive [activator, single point]"
18,CCCNC(=O)C1CCN(c2cc(-c3ccccc3)nc3ncnn23)CC1,inactive
19,CCN(CC(=O)Nc1ccccc1OC)Cc1csc(CC(=O)Nc2ccc(C)cc2)n1,"inconclusive [activator, partial curve, poor fit]"
20,OCC[n+]1ccc(/C=C/c2c[nH]c3ccccc23)cc1,"inconclusive [activator, partial curve, poor fit]"
21,COc1ccc(Cl)cc1NC(=S)NC1CCCC1,inactive
22,CC1Cc2ccccc2N1S(=O)(=O)c1cccc(C(=O)N2CCN(c3ncccn3)CC2)c1 (stereo not given),"inconclusive [activator, full curve, poor fit]"

row,SMILES,Potency
1,COc1ccccc1NC(=O)c1ccc(S(=O)(=O)N2CCC(C)CC2)cc1,"inconclusive [activator, single point]"
2,CC1(C)CCC(=O)N2CC[C@H]3C[C@H](OC(=O)Nc4ccc5c(c4)OCO5)C[C@@H]1[C@H]32,inactive
3,O=C(Nc1nnc(-c2ccccc2)s1)c1ccc(F)cc1,inactive
4,COc1ccc(NS(=O)(=O)c2cc(C)ccc2C)cc1,"inconclusive [activator, single point]"
5,COC(=O)c1ccc(COc2cccc3c2CCN(Cc2cccc(C)c2)C3=O)o1,"inconclusive [activator, partial curve, poor fit]"
6,Cc1ccc(NC(=O)CCC(=O)NNC(=O)COc2ccc([N+](=O)[O-])cc2)c(C)c1,active: 1.64 µM
7,CSCSC1=C(C#N)C(c2ccccc2Cl)C(C(C)=O)=C(C)N1 (stereo not given),"inconclusive [activator, partial curve]"
8,O=C(CC1SC(N2CCCCC2)=NC1=O)Nc1cccc(C(=O)NCc2ccc(F)cc2)c1 (stereo not given),"inconclusive [activator, partial curve, poor fit]"
9,O=c1nc2ccccc2c2n1CC(CN1CCN(c3ccccc3F)CC1)N2 (stereo not given),"inconclusive [activator, single point]"
10,CCN(CC(=O)NCc1ccc(F)cc1)C(=O)CN1CCN(c2cc(Cl)ccc2C)CC1,"inconclusive [activator, partial curve, poor fit]"
11,Cc1ccc(NC(=O)C(=O)NCCc2c[nH]c3ccccc23)c(C)c1,inactive
12,Cc1ccsc1/C=N/NC(=O)Cn1nc(C)c([N+](=O)[O-])c1C,"inconclusive [activator, single point]"
13,O=C(CN1C(=O)NC2(CCCc3ccccc32)C1=O)NCc1cccs1 (stereo not given),"inconclusive [activator, single point]"
14,Cc1sc2nc(C3CC3)nc(SCC(=O)NCc3ccco3)c2c1C,"inconclusive [activator, single point]"
15,COCCCNc1ccnc2c(Cl)cccc12,inactive
16,COc1ccc(-c2cc(C(=O)N(C)Cc3ccc(OC)c(OC)c3OC)c3ccccc3n2)cc1OC,"inconclusive [activator, single point]"
17,COc1ccc(C)cc1N(CC(=O)N1CCCCCC1)S(C)(=O)=O,"inconclusive [activator, single point]"
18,CCCN(CCC)C(=O)c1cc(-c2ccc3c(c2)OCO3)nc2ccccc12,"inconclusive [activator, single point]"
19,Cn1cc(Br)c(C(=O)NN2C(=O)C3C(C2=O)C2C=CC3C23CC3)n1 (stereo not given),active: 0.731 µM
20,CCC(CC)c1nnc(NC(=O)c2ccc(N3CCCC3=O)cc2)s1,inactive
21,COc1ccc(CCC(=O)Nc2ccc(Br)cn2)cc1,"inconclusive [activator, single point]"
